Source: paper PMC12497685, “Anticoronavirus Isoquinoline Alkaloids: Unraveling the Secrets of Their Structure–Activity Relationship” (Influenza and Other Respiratory Viruses, 2025)

System: HCoV‐229E
Experiment: microbe, parasite or virus in culture
Type: cell-based
Conditions: Human coronavirus 229E, Huh-7, read-out: HCoV‐229E, EC50

| SMILES | EC50 |
| --- | --- |
| COc1cc2c3cc1Oc1c(O)c(OC)cc4c1[C@@H](Cc1ccc(O)c(c1)Oc1ccc(cc1)C[C@@H]3N(C)CC2)N(C)CC4 [Compound 19, (+)‐obamegine] | 8.07 ± 0.9 µM |
| COc1cc2c3cc1Oc1c(OC)c(OC)cc4c1[C@@H](Cc1ccc(O)c(c1)Oc1ccc(cc1)C[C@@H]3N(C)CC2)N(C)CC4 [Compound 17, (+)‐berbamine] | 5.11 ± 0.79 µM |
